Out of some 350,000 compounds screened, about 31,000 (8.9%) were called active. Inconclusive results, whose numbers are uncertain, are shown with a selection of clear calls. Calls come from the whole dose curve; as a rule, active = well fitted inhibition curve with a large enough effect; inconclusive = small, poorly fitted or top-dose-only effect; inactive = no such curve, though single readings can be large or run the other way. Potencies beside an inconclusive call are fits to weak or partial responses and may not hold up.
Target: Histone-lysine N-methyltransferase EHMT2 (Homo sapiens) (UniProt Q96KQ7)
Assay: qHTS Assay for Inhibitors of Histone Lysine Methyltransferase G9a; note: nearly all actives have a fitted effect of over 75% in size
Conditions: G9a H3K9 monomethylation, AlphaScreen, 2 h
Procedure, shortened: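 G9a (20 nM) preincubated 15 min RT with compounds, then 500 nM biotinylated H3K9 peptide and 20 uM SAM added; 2 h RT reaction. Monomethyl-H3K9 product detected by AlphaScreen with anti-H3K9me1 antibody, streptavidin donor and anti-rabbit IgG acceptor beads.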
Potency is the fitted concentration of half-maximal effect; tags give direction and shape of the fitted curve.

Sequence of UniProt Q96KQ7 (Q96KQ7 whole entry, looked up): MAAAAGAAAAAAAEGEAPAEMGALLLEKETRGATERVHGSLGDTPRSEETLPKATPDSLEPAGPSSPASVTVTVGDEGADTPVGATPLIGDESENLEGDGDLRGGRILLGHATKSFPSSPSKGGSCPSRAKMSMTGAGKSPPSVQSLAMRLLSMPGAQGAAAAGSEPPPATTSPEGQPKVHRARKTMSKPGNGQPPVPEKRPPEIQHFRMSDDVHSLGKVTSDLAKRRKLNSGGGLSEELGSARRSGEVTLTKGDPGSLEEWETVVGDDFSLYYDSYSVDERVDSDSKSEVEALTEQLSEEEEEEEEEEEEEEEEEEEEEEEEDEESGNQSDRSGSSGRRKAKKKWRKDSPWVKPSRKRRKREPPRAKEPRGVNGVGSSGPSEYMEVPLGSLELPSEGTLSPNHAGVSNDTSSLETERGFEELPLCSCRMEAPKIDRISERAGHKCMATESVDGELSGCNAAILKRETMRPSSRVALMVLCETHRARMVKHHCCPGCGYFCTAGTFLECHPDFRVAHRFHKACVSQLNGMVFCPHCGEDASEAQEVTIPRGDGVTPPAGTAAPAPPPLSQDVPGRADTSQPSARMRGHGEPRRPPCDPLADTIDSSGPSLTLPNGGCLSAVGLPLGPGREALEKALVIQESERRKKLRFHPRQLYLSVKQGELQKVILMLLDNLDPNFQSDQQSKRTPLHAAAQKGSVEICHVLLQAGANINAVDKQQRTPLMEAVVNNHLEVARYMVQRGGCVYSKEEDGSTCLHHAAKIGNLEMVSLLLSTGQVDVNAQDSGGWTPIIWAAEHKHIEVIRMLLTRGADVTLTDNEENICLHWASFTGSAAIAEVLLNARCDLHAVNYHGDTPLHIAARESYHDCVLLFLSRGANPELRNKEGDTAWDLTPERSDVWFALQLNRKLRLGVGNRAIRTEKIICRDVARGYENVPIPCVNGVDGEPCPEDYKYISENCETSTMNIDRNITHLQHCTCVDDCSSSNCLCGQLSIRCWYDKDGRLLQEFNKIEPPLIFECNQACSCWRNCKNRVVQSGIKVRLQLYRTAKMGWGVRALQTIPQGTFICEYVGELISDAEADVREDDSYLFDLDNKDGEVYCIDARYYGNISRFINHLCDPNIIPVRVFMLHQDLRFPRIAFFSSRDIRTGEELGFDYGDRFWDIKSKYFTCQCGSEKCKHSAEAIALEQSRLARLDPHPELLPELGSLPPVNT

Row | Structure (SMILES) | Potency
1 | COC(=O)/C=C1\S/C(=N/NC(=O)c2ccccc2)NC1=O | inconclusive: 1.78 µM [inhibitor, partial curve, poor fit]
2 | COc1ccccc1/C=C/C(=O)NCC(=O)N/N=C/c1ccccc1 | inactive
3 | O=C(O)c1cc2ccccc2c(Cc2cc3ccccc3c(C(=O)O)c2O)c1O (tested in a mixture with another compound) | inconclusive: 10 µM [inhibitor, single point]
4 | Cc1ccc(CSc2nnc(-c3ccncc3)n2C)cc1 | inactive
5 | NC(=O)c1cccc(S(=O)(=O)N2CC(c3ccccc3)CC2=O)c1 (stereo not given) | inconclusive: 89.1 µM [inhibitor, single point]
6 | Cc1ccc(CNc2nc(-c3ccco3)nn2C(=O)c2ccccc2[N+](=O)[O-])cc1 | active: 12.6 µM
7 | O=C(Nc1ccccc1-c1nnc(SCc2ccc(Cl)cc2)o1)c1ccccc1 | inactive
8 | CN(C)S(=O)(=O)c1cccc(C(=O)NCC(C)(C)CNC(=O)c2cccc(S(=O)(=O)N(C)C)c2)c1 | inactive
9 | Cc1ccc2c(=O)c(C(=O)c3ccccc3)cn(CC(=O)NCc3ccccc3)c2n1 | inactive
10 | S=c1[nH]nc(-c2ccco2)n1/N=C/C(Cl)=C/c1ccccc1 | active: 4.47 µM
11 | CCCCN(CC)CCNC(=S)Nc1ccc2nc(N3CCN(C)CC3)cc(C)c2c1 | inconclusive: 0.891 µM [inhibitor, full curve, poor fit]
12 | C=CCNCCCOc1ccc(C)cc1Br | inactive
13 | O=c1[nH][nH]cc1C=Nc1cc(Cl)ccc1O | inconclusive: 89.1 µM [inhibitor, single point]
14 | O=C(NC1CC1)c1ccc(CSCc2cccc(F)c2)o1 | inconclusive: 89.1 µM [inhibitor, single point]
15 | COc1ccc(N2CC(C(=O)NCCS(=O)(=O)N3CCN(c4ccccc4)CC3)CC2=O)cc1 (stereo not given) | inactive
16 | Cc1ccc(-c2nnc(SCC(=O)N3c4ccccc4NC(=O)C3(C)C)n2N)cc1 | inconclusive: 3.55 µM [inhibitor, partial curve]
17 | Cc1ccc(C)c(NC(=O)CSc2nc3nccnc3c(=O)n2CCc2c[nH]c3ccccc23)c1 | inactive
18 | COCC(C)n1c(C)cc(C(=O)COC(=O)c2nc3nc(C)cc(C)n3n2)c1C (stereo not given) | active: 56.2 µM
19 | O=C(Nc1cc(Sc2ccccn2)cc([N+](=O)[O-])c1)c1cccc(F)c1 | inconclusive: 1.78 µM [inhibitor, partial curve, poor fit]
20 | Cc1cccc(-n2nc3c(c2NC(=O)c2ccco2)CS(=O)(=O)C3)c1C | inconclusive: 89.1 µM [inhibitor, partial curve, poor fit]
